Experimental data published in publication PMC4336329 (PLoS ONE, 2015).
The campaign covered roughly 310,000 compounds. About 2,200 (0.71%) showed an effect of 50% or more. Effects have a minus sign here. Some of the results follow.

molecular target: human ether-à-go-go-related gene (hERG) potassium channel (human, UniProt Q12809); assay: primary screen, population patch clamp on CHO cells stably expressing hERG
Sequence (Q12809 whole entry, looked up): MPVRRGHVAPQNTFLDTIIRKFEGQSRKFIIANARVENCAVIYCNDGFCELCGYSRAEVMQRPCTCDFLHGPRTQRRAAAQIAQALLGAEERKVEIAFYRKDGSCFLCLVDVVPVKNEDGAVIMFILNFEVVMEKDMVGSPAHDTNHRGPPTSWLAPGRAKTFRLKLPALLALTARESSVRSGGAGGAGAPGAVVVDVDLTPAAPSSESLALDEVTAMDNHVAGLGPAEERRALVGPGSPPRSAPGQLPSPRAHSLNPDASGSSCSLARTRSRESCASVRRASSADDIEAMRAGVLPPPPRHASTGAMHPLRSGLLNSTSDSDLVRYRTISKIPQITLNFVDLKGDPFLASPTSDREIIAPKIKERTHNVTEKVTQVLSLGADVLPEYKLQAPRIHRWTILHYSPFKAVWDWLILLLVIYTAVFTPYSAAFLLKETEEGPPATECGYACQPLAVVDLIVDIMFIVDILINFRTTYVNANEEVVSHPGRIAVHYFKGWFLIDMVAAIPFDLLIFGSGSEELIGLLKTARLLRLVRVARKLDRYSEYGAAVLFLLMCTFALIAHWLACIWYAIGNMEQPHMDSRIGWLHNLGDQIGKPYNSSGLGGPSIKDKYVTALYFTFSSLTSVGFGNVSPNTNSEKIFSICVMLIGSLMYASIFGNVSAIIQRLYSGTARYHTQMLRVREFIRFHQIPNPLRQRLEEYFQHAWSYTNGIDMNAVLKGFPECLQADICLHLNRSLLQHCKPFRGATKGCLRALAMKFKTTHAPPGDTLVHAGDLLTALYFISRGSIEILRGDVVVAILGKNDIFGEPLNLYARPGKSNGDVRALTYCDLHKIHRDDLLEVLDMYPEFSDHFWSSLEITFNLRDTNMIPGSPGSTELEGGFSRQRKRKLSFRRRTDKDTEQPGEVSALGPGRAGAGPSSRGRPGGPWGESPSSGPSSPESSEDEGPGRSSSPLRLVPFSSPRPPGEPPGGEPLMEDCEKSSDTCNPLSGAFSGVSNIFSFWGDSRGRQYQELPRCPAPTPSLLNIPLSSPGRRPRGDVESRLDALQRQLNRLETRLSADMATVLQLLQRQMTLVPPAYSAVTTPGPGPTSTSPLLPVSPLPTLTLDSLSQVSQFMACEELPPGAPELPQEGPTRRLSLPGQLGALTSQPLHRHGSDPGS

Structure (SMILES) | hERG current change (%, negative = inhibition) at 1uM [%]
c1ccc(Oc2ccc(-n3cnnn3)cc2)cc1 | -0.369
O=C(CSc1cn(Cc2ccccc2)c2ccccc12)Nc1nccs1 | 13.8
Cc1cc(C)cc(NC2=NCCCS2)c1 | -6.06
O=C(NCC(=O)N1CCCCCCC1)c1ccccc1Br | 13.8
COc1ccc(-n2ccnc2SCC(=O)Nc2ccccc2)cc1 | -4.79
COc1cc(OC)c(C(=O)NNC(=O)CN(C)S(=O)(=O)c2ccc(Cl)cc2)cc1OC | -3.03
CCC(CC)C(=O)Nc1ccc(C)c(O)c1 | 5.34
COc1ccc(S(=O)(=O)N2CCOC2CNC(=O)C(=O)NCc2ccco2)cc1C (centres unmarked) | 8.16
Cc1c(NC(=O)c2c(N)sc3c2CCCC3)c(=O)n(-c2ccccc2)n1C | -8.17
COc1ccc(C2NC(=O)NC(C)=C2C(=O)OC2CCCCC2)cc1OC (centres unmarked) | 10.5
Cc1ccc2nc(SCC(=O)c3ccc(Cl)s3)[nH]c2c1 | 15.9
COc1cccc(C2C([N+](=O)[O-])=C(N)Oc3c2c(=O)oc2ccccc32)c1 (centres unmarked) | 11.1
C=C(C)C(=O)Nc1cccc(C2=NOC3(C2)C[C@H](C(N)=O)N(C(=O)CC)C3)c1 (some centres unmarked) | 5.87
Cc1nn(C)c(Cl)c1NC(=O)OCc1ccc(Cl)cc1Cl | 5.22
CCOC(=O)C(=NCCOC)NNc1cc(Cl)ccc1Cl | -1.87
C/C(CS(=O)(=O)c1ccc(Cl)c(Cl)c1)=N/NC(N)=S | 5.79
Fc1ccc(-c2nnn(Cc3ccc(F)cc3Cl)n2)cc1 | 12.6
Cc1ccc(Sc2ncccc2C(=O)NCC(c2ccc(F)cc2)N2CCOCC2)c(C)c1 (centres unmarked) | 3.73
COc1ccc(OC)c(-c2cc(C(=O)Nc3ccccc3C(N)=O)c3ccccc3n2)c1 | 5.39
O=C(Cc1cccs1)N1CCN=C1SCc1ccc(F)cc1 | 8.19
Oc1ccccc1/C=N/n1c(-c2ccccc2)n[nH]c1=S | 7.98
Cc1cccc(C)c1NC(=O)c1cnccn1 | 14.4

Structure (SMILES) | hERG current change (%, negative = inhibition) at 1uM [%]
CC(=O)c1ccccc1NC(=O)CSc1nnc(Cc2csc(C)n2)o1 | 16.6
CCCc1[nH]nc2c1C(c1ccc(OC)c(Cn3nc(C)c(Br)c3C)c1)C(C#N)=C(N)O2 (centres unmarked) | -3.09
COc1cc(/C=N/n2cnnc2)ccc1OC(=O)c1ccco1 | 1.56
CCOC(=O)C1CCN(C(=O)CCc2ccccc2)CC1 | 7.76
CCCOc1ccccc1C(=O)NC(CO)C(=O)O (centres unmarked) | 17
CCCN(C(=O)c1ccco1)c1nnc(-c2cccc(C)c2)s1 | 8.37
C=CCNC(=O)CSc1n[nH]c(-c2cc(Cl)ccc2OC)n1 | 14.4
CC(C)(C)C(=O)CSc1ccc(S(=O)(=O)N2CCN(Cc3ccccc3)CC2)cn1 | 8.75
Cc1cc(NC(=O)COC(=O)C2CCCN2C(=O)c2cccs2)no1 (centres unmarked) | 1.51
CC[C@@]12C(=O)N(c3cccc(Br)c3)C(=O)N1[C@H](c1cccc(C)c1)[C@@H]1C(=O)N(Cc3ccccc3)C(=O)[C@@H]12 | 15.2
COc1ccc(C)cc1NC(=O)C(Sc1nnnn1C)c1ccccc1 (centres unmarked) | 13.7
COc1cc(/C=C2/C(=N)N3C(=NC2=O)SN=C3S(C)(=O)=O)ccc1OS(=O)(=O)c1ccc(C)cc1 | 13.5
CN1C(=O)C2C(c3ccc(N(C)C)cc3)NN(Cc3ccccc3)C2C1=O (centres unmarked) | 10.9
O=C(CSc1ccc2nnc(CCNC(=O)c3ccccc3)n2n1)NCc1ccco1 | 7.6
COc1ccc(C2/C=C\CN(C(=O)Nc3ccccc3-c3ccccc3)CC(=O)N2Cc2ccc(F)cc2)cc1 (centres unmarked) | 17
CCOc1cc(/C=C2/SC(=S)N(CC3CCCO3)C2=O)ccc1O (centres unmarked) | 4.38
O=c1oc(C2(O)CCCCC2)cc2ccc(/C=C/c3ccc(F)cc3)cc12 | 14.5
CC(=O)Nc1c(C(=O)Nc2ccc3c(c2)OCO3)oc2ccccc12 | 18.3
COc1ccc(/C=C2\SC(=O)N(CCNC(=O)C3=COCCO3)C2=O)cc1 | 13.9
Cn1c(=O)[nH]c(=O)c2c1nc(N1CCCC1)n2CC(O)COc1ccccc1 (centres unmarked) | -0.0131
CCOc1ccccc1C1CC(=O)NC2=C1C(=O)CC(C)(C)C2 (centres unmarked) | 4.62
CCOCCCn1c(SCC(=O)Nc2cccc(OC)c2)nc2ccccc2c1=O | -10.6

Structure (SMILES) | hERG current change (%, negative = inhibition) at 1uM [%]
O=C(Nc1cccc(S(=O)(=O)Nc2ccc(Cl)cc2)c1)c1ccccn1.O=C(O)C(=O)O | 3.5
CCN(c1ccc(NS(=O)(=O)c2cc(Cl)ccc2Cl)cc1)C(C)C | 1.15
O=c1c2ccccc2nc(CN2CCCCCC2)n1-c1ccc(F)cc1 | -2.58
CN(C)c1ccc(Nc2nc(N)c([N+](=O)[O-])c(N3CCOCC3)n2)cc1 | 9.17
CC1CC(C)CN(C(=O)CN2C(=O)NC3(CCCCCCC3)C2=O)C1 (centres unmarked) | 6.48
CCN1C(=O)N[C@@H](c2cccc(C(F)(F)F)c2)[C@H](C(C)=O)[C@H]1C | 9.75
NS(=O)(=O)c1ccc(CCNC(=O)c2ccc(S(=O)(=O)N3CCCCC3)cc2)cc1 | 9.86
COc1ccc(-c2cc3ccc(OCc4nn[nH]n4)cc3oc2=O)cc1OC | -13.8
CN(CC(=O)Nc1c(Cl)cccc1Cl)C(=O)C1=COCCO1 | 11.6
O=C(NCc1ccccn1)c1cc(-c2ccccc2)on1 | 13.3
Cc1ccc2nc(-c3cc(-c4ccccc4)no3)cn2c1 | 8.64
O=C(O)Cn1nnnc1SCC(=O)Nc1ccc(OC(F)(F)F)cc1 | 8.73
O=C(CNC1C(=O)Nc2ccccc21)Sc1ccccc1 (centres unmarked) | 18.6
O=C(NC1=NCCS1)c1cc(-c2cccc(Br)c2)nc2ccccc12 | 10.1
COCCN(C(=O)COC(=O)c1ccc(Cl)s1)c1c(N)n(Cc2ccccc2)c(=O)[nH]c1=O | 13
CC(=O)CCN1C(=O)NC2(CCCc3ccccc32)C1=O (centres unmarked) | 9.71
CCCCCCSc1ccc([C@@H]2[C@H]3C(=O)N(CC)C(=O)[C@H]3[C@]3(C(=O)OC)CCCN23)cc1.O=C(O)C(F)(F)F | 6.41
CC(=O)N1CCc2ccc(S(=O)(=O)N3CC(C)OC(C)C3)cc21 (centres unmarked) | 16.6
CCn1c(C)nc2cc(C(=O)N/N=C(\C)c3ccc(N4CCOCC4)cc3)ccc21 | 12.9
CC[C@H](C)[C@@H](C(=O)N1CCNCC1)n1cc([C@@H](N)CC(C)C)nn1.Cl | 14.1
CN(CCc1ccccc1)C(=O)CCc1nnc(Cc2ccc3c(c2)OCO3)o1 | 7.64
COc1cc(CNC(C)c2ccccc2)cc(Cl)c1OCC(=O)Nc1ccccc1.Cl (centres unmarked) | 15

Structure (SMILES) | hERG current change (%, negative = inhibition) at 1uM [%]
CCC(NC(=O)/C(=C\c1ccc2c(c1)OCO2)NC(C)=O)C(=O)O (centres unmarked) | -0.47
CC(=O)c1ccc(S(=O)(=O)Nc2ccc(C(=O)NCC(c3cccs3)N3CCOCC3)cc2)cc1 (centres unmarked) | 15.1
O=C(NCc1ccccc1)c1cc[n+]([O-])cc1 | 13.1
Cc1nnsc1C(=O)N1CCCC(N2CCN(c3ccc(F)cc3)CC2)C1 (centres unmarked) | 12.3
Nc1ccc(C(=O)OCCCc2nc3ccccc3[nH]2)cc1 | 16.9
Cc1nn(C)cc1-c1n[nH]c(=S)n1-c1ccc(F)cc1 | 9.47
CCCCSc1nnc(-c2ccc(NC(=O)CCc3ccccc3)cc2)n1C | 19.5
CCN1C(=O)[C@@H]2[C@@H](c3ccc(-c4ccccc4)cc3)N3CCCC[C@@]3(C(=O)OC)[C@@H]2C1=O.O=C(O)C(F)(F)F | 11
CCOC(=O)C1(Cc2cccc(OC)c2)CCN(Cc2cc(OC)ccc2OC)CC1 | -7.48
CCOc1ccc(Cn2c3ccc(OC)cc3c3nc4ccccc4nc32)cc1 | 13.1
CCOC(=O)CC1COCCN1C(=O)c1cc(COc2ccc(F)cc2Cl)on1 (centres unmarked) | 9.6
O=C(N/N=C/c1ccc(Br)o1)c1cncc(Br)c1 | 7.97
Cc1ccc(C)c(NCc2n[nH]c(=S)n2-c2ccccc2)c1 | 14
CN(C)c1ccc(/C=C2/C(=N\O)C3CCN2CC3)cc1.Cl | 13.6
CCCCCNC(=O)Cc1cc(=O)[nH]c(=O)[nH]1 | 18.4
O=C(O)CN1C(=O)C(=O)N(Cc2ccc(Cl)cc2Cl)C1=O | 15.9
CC(C)CNS(=O)(=O)c1ccc(CCC(=O)N2CCN(c3ccc(F)cc3)CC2)cc1 | -9.44
O=c1[nH]c(=O)n(-c2ccc(Cl)cc2)c(O)c1C=NCCN1CCCCC1 | 13.3
O=C(Nc1cc(N2CCCCC2)ncn1)c1ccc(F)cc1 | 3.11
Cn1ncc([N+](=O)[O-])c1C(=O)Nc1ccccc1C(=O)O | 15.4
